# Screen size: about 420,000 compounds; about 64,000 (15%) were called active. The inconclusive results got no clear call from the source; some entries with a clear call stand among them for comparison. The call rests on the fitted dose curve; in most records, active means well fitted inhibition curve with a large enough effect; inconclusive means small, poorly fitted or top-dose-only effect; inactive means flat fitted curve, though single readings scatter. Potencies of inconclusive entries are left out as doubtful fits.
# Experiment: qHTS for Inhibitors of human tyrosyl-DNA phosphodiesterase 1 (TDP1): qHTS in cells in absence of CPT; further: nearly all actives have a fitted effect of over 55% in size
# Details: DT40 Tdp1-/- hTDP1 cells, no CPT, ATP luminescence, 48 h; activity change, negative = growth inhibition: at 46.2 µM (top of the series) unless noted
# How it was run: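 Luminescent ATP content (CellTiter-Glo) served as the growth readout. Knockout chicken DT40 cells expressing human TDP1 were exposed to compounds without camptothecin for a minimum 48 hr at 37 °C.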
# On the % scale 0 is the no-effect control and ±100 the full control effect; potency means the concentration at half of the fitted maximal effect; tags describe the fitted curve by direction and shape.
Compound,Potency,"activity change, negative = growth inhibition"
Cc1cc(N2CCN(c3ccccn3)CC2)n2c(nc3ccccc32)c1C#N,active: 18.4 µM,–
Cc1ccc(C)c(OCc2ccc(C(=O)Nc3ccc([N+](=O)[O-])cn3)o2)c1,"inconclusive [inhibitor, single point]",–
O=C(O)CCCCCn1c(SCC(=O)c2ccc(O)c(O)c2)nc2ccsc2c1=O,inactive,–
C(=C\c1ccccc1)/CN1CCN(C(c2nnnn2C2CCCCC2)C2CC2)CC1 (configuration not stated),active: 16.4 µM,–
Cn1nc(C(=O)NCCc2ccc(S(N)(=O)=O)cc2)c2c1-c1ccccc1S(=O)(=O)C2,inactive,–
NC(=O)c1cc2cc(Cl)ccc2o/c1=N/NC(=O)c1cccs1,"inconclusive [inhibitor, partial curve]",–
COc1ccc(OC)c(NC(=O)c2csnn2)c1,"inconclusive [inhibitor, single point]",–
O=C(NC1CCCCCC1)c1cccnc1Sc1ccccc1,–,inconclusive: -35.5% [inhibitor]
COc1ccc(N(C(=O)c2ccn[nH]2)C(C(=O)NC2CCCC2)c2ccc(F)cc2)cc1 (configuration not stated),inactive,–
CC1=C(C(=O)Nc2ccc(C)cc2C)C(c2sccc2C)n2ncnc2N1 (configuration not stated),inactive,–
COC(=O)c1ccc(-c2cccc3c2OC(CNC(=O)/C=C/c2ccc(OC)c(OC)c2)C3)nc1 (configuration not stated),inactive,–
CCOC(=O)N1CCC(NS(=O)(=O)c2ccc(C)cc2)CC1,"inconclusive [inhibitor, partial curve]",–
O=C(CSc1nnc(-c2c[nH]c3ccccc23)o1)N1CCCCC1,"inconclusive [inhibitor, partial curve]",–
CN(C)S(=O)(=O)c1ccc(NC(=O)CN2C(=O)NC3(CCCC3)C2=O)cc1,inactive,–
CCOC(=O)CNC(=O)CSc1nc(NCc2ccccc2)nc(N(C)C)n1,"inconclusive [inhibitor, single point]",–
C=C(C)c1cccc(C(C)(C)NC(=O)Nc2ccccc2OCC)c1,"inconclusive [inhibitor, partial curve]",–
CC(C)c1ccc(NC(=O)c2ccc(NS(C)(=O)=O)cc2)cc1,active: 4.61 µM,–
Cc1nn(Cc2ccccc2Cl)c(C)c1NC(=O)c1noc2c1CCCCC2,"inconclusive [inhibitor, single point]",–
OC(COCc1ccccc1)CN1CCCC1 (configuration not stated),inactive,–
COc1cc(/C=C(/NC(=O)c2ccccc2)C(=O)N2CCOCC2)c([N+](=O)[O-])cc1OC,inactive,–
COc1ccc(-c2ccc(CN3C(C(C)C)C(=O)N(Cc4cn(Cc5ccco5)nn4)CCS3(=O)=O)cc2)cc1OC (configuration not stated),"inconclusive [inhibitor, partial curve, poor fit]",–
COc1ccc(C(=O)NCC(c2ccccc2)c2ccccc2)cc1S(=O)(=O)N1CCOCC1,"inconclusive [inhibitor, single point]",–
COc1cccc2sc(N3CCN(C(=O)C4COc5ccccc5O4)CC3)nc12 (configuration not stated),"inconclusive [inhibitor, single point]",–
O=C(Nc1nnc(S(=O)(=O)N2CCCc3ccccc32)s1)c1ccccc1Br,"inconclusive [inhibitor, single point]",–

Compound,Potency,"activity change, negative = growth inhibition"
CCCCn1c(N)c(N(CC(C)C)C(=O)CCCSc2nncs2)c(=O)[nH]c1=O,inactive,–
Cc1ccc(OCC(=O)NNC(=O)CSC(=S)N2CCCC2)cc1,inactive,–
ClC(Cl)c1nnc(-c2ccccc2)c(-c2c[nH]c3ccccc23)n1,"inconclusive [inhibitor, full curve]",–
Cc1ccccc1Cn1c2ccccc2c2cnn(CC(=O)NCCc3ccccc3)c(=O)c21,"inconclusive [inhibitor, single point]",–
CCC(C)c1ccc(NC(=O)COC(=O)c2nc3nccc(C)n3n2)cc1 (configuration not stated),"inconclusive [inhibitor, single point]",–
CCCCS(=O)(=O)/C=C\C1C2C=CC(C2)C1S(=O)(=O)CCCC (configuration not stated),"inconclusive [inhibitor, full curve]",–
COc1cc(-c2noc(CCC(=O)Nc3cc(C)ccc3C)n2)cc(OC)c1OC,active: 11.6 µM,–
COc1ccc(NC(=O)C(Cc2ccccc2)n2cccc2)cc1OC (configuration not stated),active: 20.6 µM,–
Cc1ccc2[nH]c(=O)c(CN(Cc3ccccc3)Cc3nnnn3Cc3ccco3)cc2c1,"inconclusive [inhibitor, partial curve]",–
CCCCN(C=O)c1c(CC)nc2ccc(C(=O)N(C)Cc3ccccc3)cn12,inactive,–
Cc1cc(C)n2nc(NCc3ccccc3)nc2n1,inactive,–
CCOC(=O)c1cc(C)sc1NC(=S)Nc1ccccc1,inactive,–
C=CCN(Cc1ccc(OC)c(OC)c1)C(=O)c1cc2cc(F)ccc2[nH]1,"inconclusive [inhibitor, single point]",–
CC(=O)NC(C)(c1ccccc1)c1nc(-c2cnc3ccccc3c2)cs1 (configuration not stated),active: 14.6 µM,–
CCN(Cc1nc2cc(Cl)ccc2c(=O)[nH]1)C(=O)CN1C(=O)NC2(CCCCC2C)C1=O (configuration not stated),inactive,–
COc1cc(CN2C[C@@H](CO)O[C@@H](n3cnc4c(NCc5ccco5)ncnc43)C2)cc(OC)c1OC,inactive,–
Cc1ccc(-n2ncc(C(=O)NCCc3c[nH]c4ccccc34)c2C2CCN(C(=O)OC(C)(C)C)CC2)cc1C,"inconclusive [inhibitor, single point]",–
CC(NC(=O)NC(=O)c1ccc(Cl)cc1)c1ccccc1 (configuration not stated),"inconclusive [inhibitor, single point]",–
Cc1ccc2cc(CN(c3ccccc3)S(=O)(=O)c3ccccc3)c(=O)[nH]c2c1,"inconclusive [inhibitor, single point]",–
CCCCN1C(=O)C(CC(=O)NCc2ccco2)CC(C(=O)N(CC)CC)=C1C (configuration not stated),inactive,–
O=C(N/N=C/c1cc(Br)c(O)c(Br)c1O)c1ccc2c(c1)OCCO2,active: 8.2 µM,–
CN1C(=O)/C(=C\C(=O)c2cccs2)c2ccccc21,active: 9.2 µM,–
O=C(NC1CCCc2ccccc21)c1ccccc1 (configuration not stated),–,inconclusive: -31.5% [inhibitor]
CC(CNC(=O)CCc1nnc(CCC2CCCCC2)o1)c1ccccc1 (configuration not stated),"inconclusive [inhibitor, single point]",–

Compound,Potency,"activity change, negative = growth inhibition"
Cc1ccc(NC(=O)C(=O)NCCN2CCN(S(=O)(=O)c3ccccc3)CC2)cc1C,"inconclusive [inhibitor, partial curve]",–
Cc1cc(C)nc(/N=C(\N)Nc2cccc([N+](=O)[O-])c2)n1,"inconclusive [inhibitor, single point]",–
COc1ccc(C(C)NC(=S)NC2CCCCC2)cc1OC (configuration not stated),inactive,–
CCOc1cccc2cc(C(=O)Oc3ccc(OC)cc3)c(=O)oc12,inactive,–
CC(=O)NC12CC3CC(C1)CC(C(=O)N(C)CC(=O)Nc1ccccc1Cl)(C3)C2,inactive,–
COc1ccc(-c2c3c(nc4sc5c(=O)[nH]c(C)nc5c24)CCC3)cc1,"inconclusive [inhibitor, single point]",–
Cc1c(Cc2ccccc2)c(=O)oc2c(C)c(OCC(=O)Nc3ccc(C#N)cc3)ccc12,"inconclusive [inhibitor, single point]",–
C/C(=N\NC(=O)c1cc(C)nc2ccccc12)c1ccc([N+](=O)[O-])cc1,inactive,–
COc1cc(C2CC(=O)c3cnc(NC(C)=O)nc3C2)cc(OC)c1OC (configuration not stated),inactive,–
O=C(Nc1cccc(Cl)c1N1CCOCC1)c1ccc([N+](=O)[O-])o1,"inconclusive [inhibitor, full curve]",–
COc1cc(F)ccc1-c1csc(C(NC(C)=O)c2cccc(F)c2)n1 (configuration not stated),"inconclusive [inhibitor, single point]",–
COc1ccc(C(C(=O)NC2CCCC2)N2CCc3ccccc32)cc1 (configuration not stated),"inconclusive [inhibitor, single point]",–
COc1ccc(C(=O)c2ccc(Cl)cc2)c(OC)c1OC,–,inconclusive: -31.4% [inhibitor]
Cc1ccc(N2CC(C(=O)N(C)CC(=O)Nc3ccc(Cl)c(C(F)(F)F)c3)CC2=O)cc1 (configuration not stated),"inconclusive [inhibitor, single point]",–
CCC(=O)Nc1ccc(CC)cc1-c1nc2ccccc2n(Cc2ccccc2)c1=O,"inconclusive [inhibitor, single point]",–
CCCNC(=O)c1ccccc1NC(=O)c1ccccc1N(C)S(=O)(=O)c1ccccc1,"inconclusive [inhibitor, single point]",–
Cc1ccc(NC(=O)c2ccc(CSc3ccccn3)cc2)cc1,active: 23.1 µM,–
COc1ccc2cc(C(N)=O)/c(=N/NC(=O)c3ccco3)oc2c1,"inconclusive [inhibitor, partial curve]",–
COc1ccccc1-c1ccnc(-n2ncc(C(=O)N3CCN(C(C)C)CC3)c2-c2ccco2)n1,inactive,–
CCOC(=O)c1cn[nH]c1NC(=S)Nc1ccc(OC)cc1,"inconclusive [inhibitor, single point]",–
COc1cc(/C=N/n2nnnc2Nc2ccccc2)cc(OC)c1OC,active: 18.4 µM,–
CC(NC(=O)CN(c1ccc(Cl)cc1Cl)S(=O)(=O)c1ccccc1)c1ccccc1 (configuration not stated),"inconclusive [inhibitor, single point]",–
Cc1nn(C)cc1C(C(=O)NC1CCCCC1)N(C(=O)Cc1cccs1)c1ccc(F)cc1 (configuration not stated),"inconclusive [inhibitor, partial curve]",–
CN(C(=O)CSC1=Nc2ccccc2C2=NC(c3ccccc3)C(=O)N12)C1CCCCC1 (configuration not stated),"inconclusive [inhibitor, single point]",–

# — PubChem BioAssay AID686978 (National Center for Advancing Translational Sciences (NCATS), 2013)
